Data published in PMC12527917, “Regulation of kinesin-2 motility by its β-hairpin motif” (Nature Structural & Molecular Biology, 2025).

What was measured:
Assay in all cases: SEC; motor subunits coexpressed in Sf9, purified through the ZZ tag of Kif3B/C on IgG Sepharose, TEV elution, Superose 6 Increase 3.2/300 in buffer A (50 mM Tris-HCl pH 7.5, 150 mM K-acetate, 2 mM Mg-acetate, 5% glycerol, 1 mM DTT, 0.2 mM Mg-ATP); SDS-PAGE of peak fraction
Settings in all cases: both partners purified
[1] = biological target: T1, Kif3B^ΔC39 (human, UniProt O15066 1-708)
T1 construct: Kif3B, human, 39 amino acids truncated from the C terminus; also called Kif3B^Δ39; source: Sf9 (baculovirus), coexpressed with Kif3A^ΔC103, purified (IgG Sepharose, TEV elution, SEC); not shown: ZZ, N-terminal, cleaved
T1 sequence (looked up): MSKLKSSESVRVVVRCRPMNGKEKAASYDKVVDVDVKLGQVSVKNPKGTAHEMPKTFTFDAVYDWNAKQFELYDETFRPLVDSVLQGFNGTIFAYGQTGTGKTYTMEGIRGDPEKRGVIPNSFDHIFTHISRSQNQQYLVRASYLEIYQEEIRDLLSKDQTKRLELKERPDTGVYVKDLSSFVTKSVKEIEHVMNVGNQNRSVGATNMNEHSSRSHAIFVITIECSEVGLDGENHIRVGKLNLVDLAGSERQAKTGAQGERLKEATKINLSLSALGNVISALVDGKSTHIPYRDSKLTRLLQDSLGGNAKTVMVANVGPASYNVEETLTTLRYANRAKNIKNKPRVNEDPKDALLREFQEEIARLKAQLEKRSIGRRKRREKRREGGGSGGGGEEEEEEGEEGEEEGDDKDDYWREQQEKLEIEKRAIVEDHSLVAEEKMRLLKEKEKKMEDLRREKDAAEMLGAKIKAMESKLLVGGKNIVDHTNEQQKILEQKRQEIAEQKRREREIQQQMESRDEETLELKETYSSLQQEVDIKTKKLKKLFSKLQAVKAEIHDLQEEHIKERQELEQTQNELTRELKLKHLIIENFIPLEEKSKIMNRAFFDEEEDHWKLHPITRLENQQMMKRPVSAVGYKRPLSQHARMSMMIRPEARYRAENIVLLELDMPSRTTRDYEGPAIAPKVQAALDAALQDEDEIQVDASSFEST

[2] = biological target: T2, Kif3B^ΔC90 (human, UniProt O15066 1-657)
T2 construct: Kif3B, human, 90 amino acids truncated from the C terminus; also called Kif3B^Δ90; source: Sf9 (baculovirus), coexpressed with Kif3A^ΔC103, purified (IgG Sepharose, TEV elution, SEC); not shown: ZZ, N-terminal, cleaved
T2 sequence (looked up): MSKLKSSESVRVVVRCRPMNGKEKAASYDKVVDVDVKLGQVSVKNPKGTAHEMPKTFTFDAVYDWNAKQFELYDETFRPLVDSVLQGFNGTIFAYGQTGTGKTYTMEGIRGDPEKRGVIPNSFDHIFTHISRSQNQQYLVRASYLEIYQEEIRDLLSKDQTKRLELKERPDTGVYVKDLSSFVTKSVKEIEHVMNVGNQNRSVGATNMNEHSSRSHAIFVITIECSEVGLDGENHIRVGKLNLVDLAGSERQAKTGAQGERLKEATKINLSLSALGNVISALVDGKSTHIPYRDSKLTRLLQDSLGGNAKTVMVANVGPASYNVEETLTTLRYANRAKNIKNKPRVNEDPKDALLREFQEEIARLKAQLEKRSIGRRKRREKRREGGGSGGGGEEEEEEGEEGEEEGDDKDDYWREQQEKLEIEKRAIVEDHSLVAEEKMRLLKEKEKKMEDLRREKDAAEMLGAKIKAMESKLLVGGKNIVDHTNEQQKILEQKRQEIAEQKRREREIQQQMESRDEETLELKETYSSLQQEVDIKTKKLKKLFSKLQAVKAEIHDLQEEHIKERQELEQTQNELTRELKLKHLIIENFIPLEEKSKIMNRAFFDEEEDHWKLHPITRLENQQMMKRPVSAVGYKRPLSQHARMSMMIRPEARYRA

[3] = biological target: T3, Kif3B^ΔC114 (human, UniProt O15066 1-633)
T3 construct: Kif3B, human, 114 amino acids truncated from the C terminus; also called Kif3B^Δ114; source: Sf9 (baculovirus), coexpressed with Kif3A^ΔC103, purified (IgG Sepharose, TEV elution, SEC); not shown: ZZ, N-terminal, cleaved
T3 sequence (looked up): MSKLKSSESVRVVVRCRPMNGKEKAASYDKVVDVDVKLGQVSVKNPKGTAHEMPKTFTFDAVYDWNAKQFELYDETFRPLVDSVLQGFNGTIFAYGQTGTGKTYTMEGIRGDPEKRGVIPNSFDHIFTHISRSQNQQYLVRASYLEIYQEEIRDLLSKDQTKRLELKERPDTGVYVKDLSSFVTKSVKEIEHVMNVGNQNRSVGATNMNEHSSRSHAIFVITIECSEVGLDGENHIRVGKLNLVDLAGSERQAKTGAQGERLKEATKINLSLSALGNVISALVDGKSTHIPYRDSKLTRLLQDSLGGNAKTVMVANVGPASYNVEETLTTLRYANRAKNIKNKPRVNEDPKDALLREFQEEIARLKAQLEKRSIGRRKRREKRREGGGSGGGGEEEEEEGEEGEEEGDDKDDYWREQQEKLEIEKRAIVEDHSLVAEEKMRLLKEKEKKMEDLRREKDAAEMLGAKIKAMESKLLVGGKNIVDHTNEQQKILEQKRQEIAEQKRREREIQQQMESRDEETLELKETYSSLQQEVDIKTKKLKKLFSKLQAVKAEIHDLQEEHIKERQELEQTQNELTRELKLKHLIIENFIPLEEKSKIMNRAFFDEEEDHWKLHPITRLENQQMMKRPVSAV

Measured: binding result

B1: Kif3A^ΔC103 (domain or fragment)
chain: not shown
notes: Kif3A, human, 103 amino acids truncated from the C terminus; also called Kif3A^Δ103; source: Sf9 (baculovirus), coexpressed with Kif3B constructs, purified (IgG Sepharose, TEV elution, SEC); not shown: SNAPf, C-terminal, kept
binds: [1] | [2] | [3]
